“And” between values parts separate entries of the source, which are not always exact repeats. Equal entries are not always repeated. The full ranking holds about 13,000 compounds; the median of “IFI” is about 4, and the highest 2% start at about 17. This is one part of the list.
Assay: GSK_TCMDC: Inhibition Frequency Index (IFI). The number of non-kinase HTS assays where a compound showed > 50 % inhibition, expressed as a percentage of the number of such assays in which the compound was tested (-0 is zero)
Format: functional
With `CN1CCN(CCCN(Cc2csc(-c3ccc(CNCc4ccccc4)cc3)n2)C(=O)Nc2cc(Cl)cc(Cl)c2)CC1` the IFI was 7.33%. Work on `COc1ccc(C2CCN(CCN3CCC(NC(=O)c4ccc(-c5cccc(C(F)(F)F)c5C(F)(F)F)cc4)CC3)CC2)c(OC)c1` yielded an IFI of 3.1%. In the case of `Cc1cc(NC(=O)Nc2ccc(Oc3ccccc3)cc2)c2ccccc2n1`, the IFI is reported as 5%. `COc1ccc(CNC2CCN(C)CC2)cc1-c1ccc(OC)c(S(=O)(=O)NCc2ccccc2)c1` showed an IFI of 4.81%. Work on `c1ccc(-c2ccc(-c3csc(Nc4ccncc4)n3)cc2)cc1` yielded an IFI of 11.9%. For `Oc1cccc(-c2nc3cc(C4=NC5CCCCC5N4)ccc3[nH]2)c1` (centres undefined), the IFI was 1.44% and 0.73%. Work on `Cc1[nH]c(C)c(-c2csc3ccccc23)c(=O)c1Cl` yielded an IFI of -0%. For `O=C(NCCCCN1CCC(c2c[nH]c3ccccc23)CC1)c1ccc(-c2ccc(C(F)(F)F)cc2)cc1`, the IFI was 2.26%. `CCC1CN2CCc3c([nH]c4ccc(OC)cc34)C2CC1CC1NCCc2cc(OC)c(OC)cc21` (centres undefined) showed an IFI of 3.05%. `N=C(N)NC(=O)Nc1cc(Br)c(Cl)c(Br)c1` gave an IFI of 5.11%. Compound `Cc1[nH]c(C)c(-c2ccc(OCc3ccc(F)cc3)cc2)c(=O)c1Cl` has an IFI of 0%. `COc1ccc(CNCc2ccsc2)cc1-c1ccc(OC)c(S(=O)(=O)NCCN2CCCC2)c1` showed an IFI of 2.91%. Work on `CCc1cc(N2CCN(c3ccccc3F)CC2)nc(SCc2ccc(C(=O)NC3CC3)o2)n1` yielded an IFI of 5%. In the case of `Cc1ccc(-n2c(C)cc(C(=O)CN3C(=O)NC(Cc4ccccc4)C3=O)c2C)cc1` (centres undefined), the IFI is reported as 2.24%. For `CCc1cn(C)c2c(N3CCCC3=O)cc(C(=O)N[C@@H](Cc3ccccc3)[C@H](O)CNC(C)(C)c3cccc(C(F)(F)F)c3)cc12`, the IFI was 3.92%. Compound `O=[N+]([O-])c1cccc(CNCC2CCN(Cc3ccc4ccccc4c3)CC2)c1` has an IFI of 2.86%. `O=C(/C=C/c1ccc(Cl)c(Cl)c1)NC1CCN(CCNC(=O)c2cccc(Cl)c2)CC1` gave an IFI of 3.4%. For `CC(C)CCN1C(=O)C(NC(=O)Oc2ccccc2)C(=O)N(CC23CC4CC(CC(C4)C2)C3)c2ccccc21` (centres undefined), the IFI was 0.78%. Compound `CCCCSc1ccc2nc(-c3c[nH]c4ccc(C#N)cc34)cn2c1` has an IFI of 0%. `Cc1nc(N)nc(N)c1-c1ccc(Cl)c(Cl)c1` gave an IFI of 2.22%. Work on `CN1CCC(C(=O)Nc2ccc(-c3ccc(-c4nc5ccccc5[nH]4)cc3)cc2)CC1` yielded an IFI of 2.61%. `CCn1ccc2c(N3CCCCS3(=O)=O)cc(C(=O)N[C@@H](Cc3ccccc3)[C@H](O)CNC(C)(C)CCCC(C)C)cc21` showed an IFI of 3.62%. With `CC(CN1CCN(C)CC1)C(=O)Nc1ccc(-c2cccc(-c3nc4cc(C(F)(F)F)ccc4[nH]3)c2)cc1` (centres undefined) the IFI was 2.78%. `COc1cccc(NC(=O)N2CCOC(CCN3CCC4(CCc5ccccc54)CC3)(c3ccc(Cl)c(Cl)c3)C2)c1` (centres undefined) gave an IFI of 7.38%. `COc1ccc(NC(=O)c2ccc3[nH]c(-c4ccc(Cl)cc4)cc3c2)cc1OCCN(C)C` showed an IFI of 12.2%. Compound `CCCCOc1ccc(/C=C/c2ccc(-c3c(C)[nH]c(C)c(Cl)c3=O)s2)cc1` has an IFI of 0.92%. Work on `CC(=O)Oc1cc(C(=O)Nc2ccc(Cl)cc2)cc2ccccc12` yielded an IFI of 15.4%. Compound `O=C(Nc1ccc(Cl)c(C(F)(F)F)c1)c1ccc(Cl)c([N+](=O)[O-])c1` has an IFI of 7.89%. `Cc1cc(NCCC(=O)NCc2cccc(F)c2)nc(Nc2ccccc2)n1` gave an IFI of 2.27%. `O=C(Nc1cccc(-c2cccc(-c3nc4cc(F)ccc4[nH]3)c2)c1)c1ccncc1` gave an IFI of 4.63%. Compound `COc1ccc(C=NN=c2c3ccccc3[nH]c3ccccc23)c2ccccc12` has an IFI of 1.54%. In the case of `CCc1ccccc1N1CCN(CCCC(=O)c2ccc(NC(=O)c3cc(Cl)cc(Cl)c3)cc2)CC1`, the IFI is reported as 4.42%. In the case of `COc1ccc(O)c(Cc2cnc3nc(N)[nH]c(=O)c3c2C)c1`, the IFI is reported as 4.93%. In the case of `Clc1cccnc1N1CCN(c2ncccc2Cl)CC1`, the IFI is reported as 0%. Work on `CCOc1ccccc1CCNCC1CCN(CC2CCCCC2)CC1` yielded an IFI of 4.32%. For `C[C@H](Cc1ccc(C[C@@H](C)NCC(O)c2cc(Cl)c(N)c(Cl)c2)cc1)NCC(O)c1cc(Cl)c(N)c(Cl)c1` (some centres undefined), the IFI was 9.35%. `Cc1cc(N[C@@H](CC(C)C)C(=O)NCCc2ccccc2)nc(NCCc2cccs2)n1` showed an IFI of 13.9%. `CCOC(=O)c1ccc(-n2c(C)cc(C=C3SC(=Nc4ccccc4)N(C4CCCC4)C3=O)c2C)cc1` showed an IFI of 4.17%. `Cc1cc(-c2ccc(NC(=O)N3CCc4cc(Br)c(N5CCN(C)CC5)cc43)cc2)cc(C)n1` showed an IFI of 1.48%. `Nc1ncc(-c2ccc3nccc(-c4ccncc4)c3c2)cc1S(=O)(=O)N1CCOCC1` showed an IFI of 8.11%. For `COc1cc(NC(=O)Nc2cccc3ccccc23)c(OC)cc1Cl`, the IFI was 2.11%. `CCNc1cc(C(=O)N[C@@H](Cc2ccccc2)[C@H](O)CNC2C3CC4CC(C3)CC2C4)cc(N2CCCCS2(=O)=O)c1` (some centres undefined) showed an IFI of 1.47%. With `C=C[C@H]1CN2CC[C@H]1C[C@H]2[C@H](O)c1ccnc2ccc(OC)cc12` the IFI was 0.73% and 0.71% and -0%. Work on `CC1(C)NC(N)=NC(=N)N1OCCSCc1cc(Cl)sc1Cl` yielded an IFI of 4.93%. With `O=C(Nc1cccc(-c2nn3ccccc3c2-c2ccnc(Nc3cccc(N4CCCC4=O)c3)n2)c1)c1cc(F)ccc1F` the IFI was 7.75%. Work on `O=C(Nc1cccc(-c2cccc(-c3nc4cc(C(F)(F)F)ccc4[nH]3)c2)c1)c1cccnc1` yielded an IFI of 4.59%. `CCN(CCS(C)(=O)=O)Cc1ccc(-c2ccc3ncnc(Nc4ccc(OCc5cccc(F)c5)c(Cl)c4)c3c2)o1` showed an IFI of 2.1%. `O=C(Nc1ccc(-c2ccc(-c3nc4cc(C(F)(F)F)ccc4[nH]3)s2)cc1)c1ccoc1` showed an IFI of 8.04%. In the case of `CCCc1cc(Cc2cnc(N)nc2N)cc(CCC)c1OCCCC(=O)OCC`, the IFI is reported as 12.1%. Compound `Cc1cccc(-c2c(C)nc(N)nc2N)c1` has an IFI of 1.6%. In the case of `O=C(NC1CCN(CCC[C@]2(c3ccc(Cl)c(Cl)c3)CCCN(C(=O)c3ccccc3)C2)CC1)c1ccc(Cl)cc1`, the IFI is reported as 16.8%. `O=C(NCCc1ccccc1)N(Cc1cccc(-c2ccc(CNCCc3ccccc3)cc2)c1)C1CCN(Cc2ccccc2)CC1` showed an IFI of 9.35%. With `COc1ccc(C(O)CNC(C)CCc2ccc(F)cc2)cc1C(F)(F)F` (centres undefined) the IFI was 5.34%. `Fc1ccc2[nH]c(-c3cccc(-c4ccc(CNCc5cnn(-c6ccccc6)n5)cc4)c3)nc2c1` gave an IFI of 3.28%. `COc1ccc(C2=C(Nc3ccc4oc5ccccc5c4c3)c3ccccc3C2=O)cc1` gave an IFI of 1.48%. With `COc1cc(NCC2(CNCc3cn(Cc4ccccc4)c4ccccc34)CCCCC2)nc2ccccc12` the IFI was 11.2%. Compound `NS(=O)(=O)c1cccc(Br)c1` has an IFI of 1.49%. With `CC(C)Cc1cnc2nc(N)nc(N)c2c1` the IFI was 1.45%. In the case of `O=C(Nc1ccsc1)Nc1cccc(-c2cccc(-c3nc4cc(C(F)(F)F)ccc4[nH]3)c2)c1`, the IFI is reported as 8.08%. Compound `O=C(NCCCN1CCC(N2CCCCC2)CC1)c1ccc(N2CCOc3ccccc32)s1` has an IFI of 11.1%. `CNCCNCc1cccc(-c2ccc(-c3nc4cc(C(F)(F)F)ccc4[nH]3)s2)c1` gave an IFI of 8%. With `COc1ccc(O)cc1/C=N/Nc1ccnc2cc(Cl)ccc12` the IFI was 0.74%. `COc1ccc(CCNC(=O)c2cc(C)ccc2O)cc1-c1ccc(C(C)(C)C)cc1` gave an IFI of 2.16%. In the case of `O=C(NCCCCN1CCN(CC=Cc2ccccc2)CC1)c1ccc(NC(=O)c2cc(Cl)cc(Cl)c2)cc1`, the IFI is reported as 5.22%. Compound `CC(=O)c1sc(Cc2nc3ccccc3s2)nc1C` has an IFI of 3.57%. In the case of `O=C(Nc1ccc2c(c1)CCN2C1CCN(Cc2ccc(O)cc2)C1)c1ccco1` (centres undefined), the IFI is reported as -0%. With `CCOC(=O)N/N=C/[C@H](CCc1ccccc1)NC(=O)[C@H](CC(C)C)NC(=O)c1cc2cccc(OC)c2o1` the IFI was 4.55%. `CCCCn1c(Sc2ccc(C#N)c([N+](=O)[O-])c2)nnc1-c1ccc(OC)cc1` showed an IFI of 2.82%. With `Cc1cc(N[C@@H](CC(C)C)C(=O)Nc2ccccc2)nc(NCCc2ccc(F)cc2)n1` the IFI was 15.9%. With `CC(C)c1sc(N2CCN(C)CC2)nc1C(=O)NCCc1cccc(Cl)c1` the IFI was 6%. `Nc1ncc(OC2CCCCC2)c(N)n1` gave an IFI of 1.41%. Work on `OC1CCC(Nc2ccc3ncc(-c4ccc(Cl)cc4)n3n2)CC1` (centres undefined) yielded an IFI of 9.02%. `O=C(Nc1ccc(Br)c(Cl)c1)c1cc([N+](=O)[O-])cc2cn[nH]c12` gave an IFI of 4.2%. `CN(Cc1ccc(NC(=O)NC2CCN(C(=O)/C=C/c3ccc(Cl)c(Cl)c3)CC2)cc1)C1CCOCC1` showed an IFI of 5%. `Cc1cccc(C)c1/N=C1\NC(=S)N(c2cccc(Cl)c2)C12CCC(C(C)(C)C)CC2` (centres undefined) showed an IFI of 0.72%. `O=C(Nc1cccc(-c2ccc(-c3nc4cc(F)ccc4[nH]3)cc2)c1)c1csnn1` showed an IFI of 5.41%. Work on `O=C(NCCCc1ccccc1)c1csc(C2CCCN(C(=O)c3ccc(O)c(-c4ccccc4)c3)C2)n1` (centres undefined) yielded an IFI of 3.01%. Work on `O=C(C=Cc1ccc(Br)cc1)N1CCC(CCN2CCC(c3c[nH]c4ccccc34)CC2)CC1` yielded an IFI of 6.52%. For `ON=C1CCc2cc(-c3cc(-c4ccc(OC5CCNCC5)cc4)oc3-c3ccncc3)ccc21`, the IFI was 7.69%. `O=C(N[C@H]1CCN(CCc2ccc(O[C@H]3CCNC3)cc2)C1)c1ccc(Cl)c(Cl)c1` gave an IFI of 4.76%. For `c1ccc(Oc2ccc(Nc3ccnc4cc(-c5ccc(CN6CCNCC6)o5)ccc34)cc2)nc1`, the IFI was 7.97%. For `CCC(C)CC(=O)Nc1ccc(OC)c(S(=O)(=O)N[C@@H]2CCN(C#N)C2)c1` (some centres undefined), the IFI was -0%. `O=C(CCn1c2ccccc2c2ccccc21)NN=Cc1ccco1` gave an IFI of 3.45%. Work on `NOCCCCOc1ccc(Br)cc1` yielded an IFI of 0.71%. In the case of `Nc1c(Cl)cc(C(O)CNCCCCCCCCCc2ccccn2)cc1Cl` (centres undefined), the IFI is reported as 4.62%. With `C[C@@H]1CN(C(c2cccc(O)c2)c2cccc(C(=O)N(C)c3cccc(F)c3)c2)[C@@H](C)CN1C(c1cccc(O)c1)c1cccc(C(=O)N(C)c2cccc(F)c2)c1` (some centres undefined) the IFI was 6.52%. Work on `Cc1ccccc1C1CCN(C2CCC(NC(=O)/C=C/c3cccc(Cl)c3F)CC2)CC1` (centres undefined) yielded an IFI of 13.3%. Work on `CCCC(C)Nc1nc(C)cc(N[C@@H](Cc2ccccc2)C(=O)NCc2cccc(F)c2)n1` (some centres undefined) yielded an IFI of 9.09%. In the case of `FC(F)(F)c1ccccc1OCc1cc(-c2ccncc2)c(COc2ccccc2C(F)(F)F)cc1C1=CCNCC1`, the IFI is reported as 10.6%.

Source: ChEMBL document CHEMBL1157539, “Thousands of chemical starting points for antimalarial lead identification” (Nature, 2010)
